In all, about 81,000 sequences were measured (“one-hybrid fitness for binding parS DNA”: median about -0.17, highest 2% from about 0.51 on). The list shows a part of the results.
B1: Caulobacter ParB omega fusion; a variant is named by its letters at X, in order, B8GW30 (parent)
chain: MESVVVGEPGMSEGRRGLGRGLSALLGEVDAAPAQAPGEQLGGSREAPIEILQRNPDQPRRTFREEDLEDLSNSIREKGVLQPILVRPSPDTAGEYQIVAGERAWRAAQRAGLKTVPIMVRELDDLAVLEIGIIENVQRADLNVLEEALSYKVLMEKFERTQENIAQTIGKSXSHVANXMRLLXLPDEVQSYLVSGELTAXHARAIAAAADPVALAKQIIEGGLSVRETEALARKAPNLSAGKSKGGRPPRVKDTDTQALESDLSSVLGLDVSIDHRGSTGTLTITYATLEQLDDLCNRLTRGI

Variants of: B1
Assay: one-hybrid fitness for binding parS DNA (scaled: cognate 1, non-cognate 0); higher = stronger binding
Conditions: with parS DNA site
Procedure, shortened: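 Caulobacter ParB libraries with four specificity codons randomised were screened by bacterial one-hybrid selection in the E. coli USO strain, using a HIS3 reporter whose site lies 19 bp from the promoter. Selection ran for 48 hours at 37°C on M9 lacking histidine, with 0.1 mM IPTG and 5 mM 3-AT. Plasmids were Illumina-sequenced before and after selection, three replicate libraries were pooled, and variants with under 10 reads were dropped. Fitness is the log change in each variant's read ratio to wild type, rescaled against the cognate and non-cognate sites.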

one-hybrid fitness for binding parS DNA, 0.991:
RVYC

one-hybrid fitness for binding parS DNA, 0.459:
RMGY

one-hybrid fitness for binding parS DNA, 0.844:
RHWG

one-hybrid fitness for binding parS DNA, 0.569:
RWIG

one-hybrid fitness for binding parS DNA, 0.449:
RGEC

one-hybrid fitness for binding parS DNA, 0.4:
RLVN

one-hybrid fitness for binding parS DNA, 0.95:
RFTC

one-hybrid fitness for binding parS DNA, 0.227:
CLRH

one-hybrid fitness for binding parS DNA, 0.242:
RCWD

one-hybrid fitness for binding parS DNA, 0.602:
RFRA

one-hybrid fitness for binding parS DNA, 0.236:
RWCV

one-hybrid fitness for binding parS DNA, 0.741:
RWQG

one-hybrid fitness for binding parS DNA, 0.521:
RTWY

one-hybrid fitness for binding parS DNA, 0.264:
RIMH

one-hybrid fitness for binding parS DNA, 0.813:
RHIS

one-hybrid fitness for binding parS DNA, ≤ 0.2:
GMRV
MIVG
RYIQ
CFRS
HYQN
PDGS
IEKR
HCYT
PNDK
PAQA
QTKS
MRKS
LYEV
AAGG
PDSP
VAGR
HAYR
SWQR
DSCR
SKNW
FNSV
AYCR
LCHI
HSGS
QSSE
DLCS
YMQL
PHWG
NVPR
GSER
VNFP
PEYV
YANC
LGHL
VHMT
PVWV
APFR
ERMC
CPPC
LQRF
IKWS
YPHS
KRGQ
AWTA
VLRK
LNET
GEMI
IVQV
HELF
KMFR
QQYK
PRMF
CTSE
GYQV
RHPW
KWPN
ATHL
NYEV
RSFQ
HKLN
DSNN
KRSP
DLAE
HRAE
SPLC
IIHG
MVTQ
EASR
RYLQ
WRFL
DTCC
QSFM
QDAN
YNTR
PGAR
MQIS
FGIS
TPIF
ERRA
QDPA
VVKS
QCEL
GTPQ
TDEQ
KQRA
AHSQ
YWRR
TQHG
TFLE
QHAA
TTRP
QCIC
SLCQ
QPNC
AVWV
RYCW
INTG
HLRT
ANSF
KFYV
MIPN
GYNS
KFTS
DAMF
QVHN
INPW
PTKK
WDHR
QSLY
KETT
TQPI
DQDR
HQDS
THNC
IYGG
AGSH
HQKT
KARM
MWLS
TNWM
MGGA
QNLH
EDIC
QTCI
IARP
RTQV
GLGT
WTWS
KNFC
QLYP
PHGY
PAND
RNVY
DGDF
SAVS
QFTF
WYDA
RYYP
FENS
EHAT
HNQC
PCTP
KYLE
SCMS
HLLG
EYEG
KFQA
VFSG
RVFD
CPEY
GCCG
DLLG
RRKQ
NKYG
YCSR
QSYF
WFSC
LHAD
HMLW
PALQ
KNSC
GMHG
APVR
IPLI
SRTM
MQSP
YMVT
CVDC
GTNL
ISSY
IFAR
TAVE
SCNY
HKRS
LLDR
NTAW
AVKE
SVLD
VQTW
ALYF
SHQP
TLCF
LGWL
RKDF
QFKT
YPLE
PWSR
FRYA
QNNH
LQWI
STSM
SLLG
FNPR
TPHG
PMGS
PGIC
NYHS
PMRL
QGRE
RDST
KISR
FCDT
YLGD
ECKG
TSWL
LHGC
VKVR
WYAC
PFSL
TCRN
LMIL
TQER
HGKY
LLAS
SLNW
AMSL
TEYS
CQGR
AVAF
PKDG
TWKS
CSAV
NSSW
WQGN
PYRG
YLKD
HGQC
VVWG
VIMY
KTHF
QFRM
HFCG
AEPF
NQPL
PANY
LGKT
DVQL
LQSF
TKHS
DTLL
HNFD
QRHY
WLHC
CSFS
VKVV
AFKT
SVQY
CCTL
DGSC
SMNH
FNSK
RCDQ
CYMA
PETV
VQSS
LMTA
QKPF
QTLS
VKMF
EKPG
KLMQ
ACTE
DNWY
VLAR
CRFT
WHQT
CKAC
QTYN
IRPF
RLEL
MVHS
HAHP
YSSG
PWKS
SRAL
ARKD
PDFI
YFSR
AWSL
RETI
ETSF
ATHQ
CYHM
QGSE
SALE
SCCT
RTIE
PHTV

one-hybrid fitness for binding parS DNA, 0.626:
RTWA

one-hybrid fitness for binding parS DNA, 0.378:
RKAY

one-hybrid fitness for binding parS DNA, 0.313:
RGNY

Reference: a collection of fitness landscapes (doi:10.1016/j.celrep.2020.107928)
